Test results as given in the supplement of paper PMC12217912.
Some of the results follow. Sequences were assembled here from the parent chain. Values near 0.05 are background.

B1: TEV protease; numbered along this chain (parent)
chain: MGESLFKGPRDYNPISSSICHLTNESDGHTTSLYGIGFGPFIITNKHLFRRNNGTLVVQSLHGVFKVKDTTTLQQHLVDGRDMIIIRMPKDFPPFPQKLKFREPQREERICLVTTNFQTKSMSSMVSDTSCTFPSGDGIFWKHWIQTKDGQCGSPLVSTRDGFIVGIHSASNFTNTNNYFTSVPKNFMELLTNQEAQQWVSGWRLNADSVLWGGHKVFMVKPEEPFQPVKEATQL

Variants of: B1
Test: raw area under fraction-flipped curve 0-4 h after induction (AUC4h, not background-subtracted), DNA-recorder readout of cleavage of the substrate (dimensionless); higher = more cleavage of the substrate by the protease variant
Settings: temperature: 34 °C; time window: 0-4 h after rhamnose induction
Method: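 In vivo DNA recorder in E. coli TOP10(DE3) ΔrhaA at 34 °C. Each TEVp single-site mutant (parent TEVp 0) is paired with a single-site variant of the 7-mer TEVs (canonical ENLYFQ|S). The substrate sits between flexible linkers in a Bxb1-sfGFP-TEVs-SsrA fusion, so cleavage stabilises Bxb1 and speeds flipping of a recombination array, read by NGS. The value is the raw area under the fraction-flipped curve over 0-4 h after rhamnose induction (AUC4h), with ≥20 reads per time point. It is not background-subtracted; inactive controls average about 0.047.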
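Also: Bxb1 expression induced with 0.2% (w/v) L-rhamnose at OD600 near 0.5, cultures sampled hourly, flipped fraction per protease–substrate barcode pair counted by paired-end Illumina sequencing.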

| Variant | area with substrate ANLYFQS | area with substrate CNLYFQS | area with substrate DNLYFQS | area with substrate GNLYFQS | area with substrate HNLYFQS | area with substrate KNLYFQS | area with substrate LNLYFQS | area with substrate MNLYFQS | area with substrate NNLYFQS | area with substrate PNLYFQS | area with substrate RNLYFQS | area with substrate SNLYFQS | area with substrate TNLYFQS | area with substrate VNLYFQS | area with substrate WNLYFQS | area with substrate YNLYFQS | area with substrate FNLYFQS | area with substrate QNLYFQS | area with substrate INLYFQS |
| --- | --- | --- | --- | --- | --- | --- | --- | --- | --- | --- | --- | --- | --- | --- | --- | --- | --- | --- | --- |
| MGEDLFKGPRDYNPISSSICHLTNESDGHTTSLYGIGFGPFIITNKHLFRRNNGTLVVQSLHGVFKVKDTTTLQQHLVDGRDMIIIRMPKDFPPFPQKLKFREPQREERICLVTTNFQTKSMSSMVSDTSCTFPSGDGIFWKHWIQTKDGQCGSPLVSTRDGFIVGIHSASNFTNTNNYFTSVPKNFMELLTNQEAQQWVSGWRLNADSVLWGGHKVFMVKPEEPFQPVKEATQL [S4D] | 0.0671 | 0.0684 | 0.0867 | 0.0685 | 0.0928 | 0.0533 | 0.0667 | 0.0569 | 0.0735 | 0.0583 | 0.0612 | 0.0664 | 0.092 | 0.0556 | 0.0447 | 0.0649 |  |  |  |
| MGESEFKGPRDYNPISSSICHLTNESDGHTTSLYGIGFGPFIITNKHLFRRNNGTLVVQSLHGVFKVKDTTTLQQHLVDGRDMIIIRMPKDFPPFPQKLKFREPQREERICLVTTNFQTKSMSSMVSDTSCTFPSGDGIFWKHWIQTKDGQCGSPLVSTRDGFIVGIHSASNFTNTNNYFTSVPKNFMELLTNQEAQQWVSGWRLNADSVLWGGHKVFMVKPEEPFQPVKEATQL [L5E] | 0.0559 | 0.0691 | 0.122 | 0.0779 |  | 0.0812 | 0.0677 | 0.0657 | 0.0543 |  |  | 0.0787 | 0.0649 |  | 0.0596 | 0.0699 | 0.056 | 0.0814 |  |
| MGESLFKFPRDYNPISSSICHLTNESDGHTTSLYGIGFGPFIITNKHLFRRNNGTLVVQSLHGVFKVKDTTTLQQHLVDGRDMIIIRMPKDFPPFPQKLKFREPQREERICLVTTNFQTKSMSSMVSDTSCTFPSGDGIFWKHWIQTKDGQCGSPLVSTRDGFIVGIHSASNFTNTNNYFTSVPKNFMELLTNQEAQQWVSGWRLNADSVLWGGHKVFMVKPEEPFQPVKEATQL [G8F] | 0.0599 | 0.0672 |  |  | 0.0522 | 0.0268 | 0.0467 | 0.0691 | 0.0727 | 0.063 |  |  | 0.0533 | 0.0607 | 0.076 |  |  |  |  |
| MGESLFKKPRDYNPISSSICHLTNESDGHTTSLYGIGFGPFIITNKHLFRRNNGTLVVQSLHGVFKVKDTTTLQQHLVDGRDMIIIRMPKDFPPFPQKLKFREPQREERICLVTTNFQTKSMSSMVSDTSCTFPSGDGIFWKHWIQTKDGQCGSPLVSTRDGFIVGIHSASNFTNTNNYFTSVPKNFMELLTNQEAQQWVSGWRLNADSVLWGGHKVFMVKPEEPFQPVKEATQL [G8K] | 0.0556 |  |  | 0.0618 | 0.0486 | 0.0589 | 0.0672 | 0.075 |  |  |  |  |  |  |  |  |  |  | 0.0456 |
| MGESLFKGPKDYNPISSSICHLTNESDGHTTSLYGIGFGPFIITNKHLFRRNNGTLVVQSLHGVFKVKDTTTLQQHLVDGRDMIIIRMPKDFPPFPQKLKFREPQREERICLVTTNFQTKSMSSMVSDTSCTFPSGDGIFWKHWIQTKDGQCGSPLVSTRDGFIVGIHSASNFTNTNNYFTSVPKNFMELLTNQEAQQWVSGWRLNADSVLWGGHKVFMVKPEEPFQPVKEATQL [R10K] | 0.0452 | 0.0608 | 0.0747 | 0.077 | 0.069 | 0.0445 | 0.0593 | 0.0582 |  | 0.0643 |  | 0.0703 |  | 0.056 | 0.0681 | 0.0584 | 0.0642 | 0.0897 | 0.0311 |
| MGESLFKGPSDYNPISSSICHLTNESDGHTTSLYGIGFGPFIITNKHLFRRNNGTLVVQSLHGVFKVKDTTTLQQHLVDGRDMIIIRMPKDFPPFPQKLKFREPQREERICLVTTNFQTKSMSSMVSDTSCTFPSGDGIFWKHWIQTKDGQCGSPLVSTRDGFIVGIHSASNFTNTNNYFTSVPKNFMELLTNQEAQQWVSGWRLNADSVLWGGHKVFMVKPEEPFQPVKEATQL [R10S] | 0.0676 | 0.0622 | 0.0702 |  | 0.0656 | 0.0658 | 0.0702 |  | 0.0579 | 0.069 |  | 0.101 | 0.0692 |  | 0.0559 | 0.0605 | 0.0611 |  | 0.0409 |
| MGESLFKGPRWYNPISSSICHLTNESDGHTTSLYGIGFGPFIITNKHLFRRNNGTLVVQSLHGVFKVKDTTTLQQHLVDGRDMIIIRMPKDFPPFPQKLKFREPQREERICLVTTNFQTKSMSSMVSDTSCTFPSGDGIFWKHWIQTKDGQCGSPLVSTRDGFIVGIHSASNFTNTNNYFTSVPKNFMELLTNQEAQQWVSGWRLNADSVLWGGHKVFMVKPEEPFQPVKEATQL [D11W] | 0.061 | 0.0649 | 0.0737 | 0.0713 | 0.0721 | 0.0719 | 0.0598 | 0.0642 | 0.0853 | 0.059 |  |  | 0.0546 |  | 0.0539 | 0.067 | 0.047 | 0.0621 | 0.0624 |
| MGESLFKGPRDYSPISSSICHLTNESDGHTTSLYGIGFGPFIITNKHLFRRNNGTLVVQSLHGVFKVKDTTTLQQHLVDGRDMIIIRMPKDFPPFPQKLKFREPQREERICLVTTNFQTKSMSSMVSDTSCTFPSGDGIFWKHWIQTKDGQCGSPLVSTRDGFIVGIHSASNFTNTNNYFTSVPKNFMELLTNQEAQQWVSGWRLNADSVLWGGHKVFMVKPEEPFQPVKEATQL [N13S] | 0.0589 | 0.073 | 0.0687 | 0.0733 | 0.0519 | 0.0718 | 0.0635 | 0.0665 |  | 0.0716 | 0.0601 | 0.0662 | 0.0734 | 0.0689 | 0.0561 | 0.0661 | 0.0522 |  | 0.0649 |
| MGESLFKGPRDYTPISSSICHLTNESDGHTTSLYGIGFGPFIITNKHLFRRNNGTLVVQSLHGVFKVKDTTTLQQHLVDGRDMIIIRMPKDFPPFPQKLKFREPQREERICLVTTNFQTKSMSSMVSDTSCTFPSGDGIFWKHWIQTKDGQCGSPLVSTRDGFIVGIHSASNFTNTNNYFTSVPKNFMELLTNQEAQQWVSGWRLNADSVLWGGHKVFMVKPEEPFQPVKEATQL [N13T] | 0.0764 | 0.0728 | 0.0709 | 0.0834 | 0.077 | 0.0518 |  | 0.0671 |  | 0.0695 |  | 0.0686 | 0.0688 | 0.0672 | 0.075 | 0.063 | 0.0479 | 0.0946 | 0.0948 |
